{"source": "paper PMC7819943", "about": "“Rice protein-binding microarrays: a tool to detect cis-acting elements near promoter regions in rice”", "note": "Some of the results follow.", "data": [{"molecular_target": "T1, OsWOX13 (Oryza sativa, UniProt Q5QMM3 1-267)", "T1 sequence": "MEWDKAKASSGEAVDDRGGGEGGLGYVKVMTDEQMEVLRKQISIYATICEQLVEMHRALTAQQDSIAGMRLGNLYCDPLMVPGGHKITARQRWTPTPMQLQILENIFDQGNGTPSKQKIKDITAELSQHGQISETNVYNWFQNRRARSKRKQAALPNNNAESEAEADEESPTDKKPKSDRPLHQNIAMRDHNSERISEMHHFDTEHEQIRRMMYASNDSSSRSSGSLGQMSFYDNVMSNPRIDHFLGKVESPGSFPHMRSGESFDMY", "test": "protein-binding microarray (RPBM); PBS, 2% BSA, 51.3 ng/ul salmon testes DNA, 50 uM zinc acetate, 200 nM TF, 25 C, 1 h; high values mean tight binding", "conditions": "protein: recombinant; tags: N-terminal polyhistidine and DsRed monomer fusion (pET32a); label: CyDye5-dUTP incorporated in the synthesized complementary strand; 3' TTTTT single-stranded linker to array surface; dsDNA, one strand shown", "method_in_brief": "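Binding signal here means per-feature fluorescence intensity in arbitrary units. The values were read on an Axon 4000B scanner after a custom Agilent array, double-stranded by primer extension with Cy5-dUTP, was incubated with 200 nM protein at 25 °C for 1 h in PBS with 2% BSA, salmon testes DNA and 50 µM zinc acetate, then washed. The proteins were transcription factors with an N-terminal polyhistidine tag and DsRed, expressed in E. coli BL21-CodonPlus and purified on Ni–NTA.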", "values": [{"sequence": "TAAAAGTAATTATGGCCATTTGCAGAAGCGGAAGGTGGAGCGGAGTCACCTAGTGCAG", "binding signal": "4970 fluorescence intensity (a.u.)"}, {"sequence": "TTAATTAATTAATTTTCTTCCTAAACATATCCGCTAATCCCGGAGTCACCTAGTGCAG", "binding signal": "53500 fluorescence intensity (a.u.)"}, {"sequence": "ACTGACTGTCACTCTCAGAGCTTGTTCTCCCACTATCTATCGGAGTCACCTAGTGCAG", "binding signal": "8950 fluorescence intensity (a.u.)"}, {"sequence": "ACACTAATTTCAAGGTTGCTCGTGAGTCATAATCCTGACGCGGAGTCACCTAGTGCAG", "binding signal": "11500 fluorescence intensity (a.u.)"}, {"sequence": "CTTGAGATGATTAGACTCCTAATGTAGCTCATGATTATATCGGAGTCACCTAGTGCAG", "binding signal": "14400 fluorescence intensity (a.u.)"}, {"sequence": "TAATGTGTGATTCCTCTAATTAAAAGAACTTCCAACTTATCGGAGTCACCTAGTGCAG", "binding signal": "5600 fluorescence intensity (a.u.)"}, {"sequence": "AGCTTCCATTTGAAGTTAATTACGGTGATTAGCTTGAGGCCGGAGTCACCTAGTGCAG", "binding signal": "23700 fluorescence intensity (a.u.)"}, {"sequence": "TGCTAATTTTATCCCGTGACTATCGTGCAGTAACGGAATTCGGAGTCACCTAGTGCAG", "binding signal": "16800 fluorescence intensity (a.u.)"}, {"sequence": "GCCTCCTATTAAATGGCAATTGTTTTGCCTGCGTGCGGGCCGGAGTCACCTAGTGCAG", "binding signal": "3170 fluorescence intensity (a.u.)"}, {"sequence": "ATTTCTAATCAATTCGGGAAGGGAAGGATAAAATTGTTTTCGGAGTCACCTAGTGCAG", "binding signal": "6320 fluorescence intensity (a.u.)"}, {"sequence": "CTGCTGTAAATTTGTTGGTTACTGACTTACTGCGTACACTCGGAGTCACCTAGTGCAG", "binding signal": "9160 fluorescence intensity (a.u.)"}, {"sequence": "ACTTAAATTAGCAGCAGTTACTACCACCTGCTTCGCAACCCGGAGTCACCTAGTGCAG", "binding signal": "24900 fluorescence intensity (a.u.)"}, {"sequence": "CGTCCTTCCGATATTGATTGTTTAAGTCGGTTGATTCGGACGGAGTCACCTAGTGCAG", "binding signal": "6600 fluorescence intensity (a.u.)"}, {"sequence": "ACCCATGATTGCTAGTGCTACTCGCGACAAGGGTTTGTAGCGGAGTCACCTAGTGCAG", "binding signal": "33600 fluorescence intensity (a.u.)"}, {"sequence": "TAGCACATGATTAATTGAGTAATAATTATTTTAAGTTTGACGGAGTCACCTAGTGCAG", "binding signal": "28200 fluorescence intensity (a.u.)"}, {"sequence": "GATCATAATCCACTAAATTTCAATCAGAGCCCAAAATAGGCGGAGTCACCTAGTGCAG", "binding signal": "10800 fluorescence intensity (a.u.)"}, {"sequence": "ATCTATCATCTGAAATATAATTATTTTCCTCATAACCATACGGAGTCACCTAGTGCAG", "binding signal": "7090 fluorescence intensity (a.u.)"}, {"sequence": "GAGTTACACAGATTGGTATTGGCTGCTATCAGTAGAGGCACGGAGTCACCTAGTGCAG", "binding signal": "7370 fluorescence intensity (a.u.)"}, {"sequence": "TTAAACAGATTTATAGAGTTACTTCTGAACCATGCAAAAGCGGAGTCACCTAGTGCAG", "binding signal": "27300 fluorescence intensity (a.u.)"}, {"sequence": "TGTAATTAGGAGTCCGACTTTCGTCTCAAGTTAGTATGCGCGGAGTCACCTAGTGCAG", "binding signal": "20900 fluorescence intensity (a.u.)"}, {"sequence": "TCTAAAATAGACAAAGCATTAAATTTGTACCCAGCATATCCGGAGTCACCTAGTGCAG", "binding signal": "8920 fluorescence intensity (a.u.)"}, {"sequence": "GGCTCATCTAATCATCGTTGCATTACAACAAATCTATGTGCGGAGTCACCTAGTGCAG", "binding signal": "5180 fluorescence intensity (a.u.)"}, {"sequence": "AATATAATTTTAAATTATAAAATCATAAAGCTAACAAGTTCGGAGTCACCTAGTGCAG", "binding signal": "26900 fluorescence intensity (a.u.)"}, {"sequence": "TTTGGCTAAATTTTGGATGTTAACAATCTTATGTATATAACGGAGTCACCTAGTGCAG", "binding signal": "3740 fluorescence intensity (a.u.)"}, {"sequence": "ACATAATTAATCATGTGCTAATGGTTTTCTTGATCATTTTCGGAGTCACCTAGTGCAG", "binding signal": "16200 fluorescence intensity (a.u.)"}, {"sequence": "ACATTAATTTCTGTTTAAACTCTTATGAATGCTTATATTTCGGAGTCACCTAGTGCAG", "binding signal": "15000 fluorescence intensity (a.u.)"}, {"sequence": "CTCCTTGAAATTTCACCTTAATTTGCTCGACGTGCTATATCGGAGTCACCTAGTGCAG", "binding signal": "17500 fluorescence intensity (a.u.)"}, {"sequence": "GAGCAATTGAGTTGGATAATTGCTGCGTGCTTTTACTTCACGGAGTCACCTAGTGCAG", "binding signal": "9920 fluorescence intensity (a.u.)"}, {"sequence": "GTCTGTAATCACAAATGAAATCTTTAATCCCGTCAGAACTCGGAGTCACCTAGTGCAG", "binding signal": "3410 fluorescence intensity (a.u.)"}, {"sequence": "CACTAATTGATCAATTGCACAACAAATTGCTTGAATAACGCGGAGTCACCTAGTGCAG", "binding signal": "59900 fluorescence intensity (a.u.)"}, {"sequence": "CTAATATAGCTAATTGTGGTACAAAACTATAAATGATACACGGAGTCACCTAGTGCAG", "binding signal": "3670 fluorescence intensity (a.u.)"}, {"sequence": "GAAGTTTAATTATCATAAGATTGTGATGGTTATGTATGGTCGGAGTCACCTAGTGCAG", "binding signal": "31700 fluorescence intensity (a.u.)"}, {"sequence": "GGTGTTTCTCTGATTGAGGTCCTGCGCAGATCATCCTCTACGGAGTCACCTAGTGCAG", "binding signal": "10300 fluorescence intensity (a.u.)"}, {"sequence": "ACTACAATTATATACTACTACAATGTAATTATATAATTAGCGGAGTCACCTAGTGCAG", "binding signal": "4170 fluorescence intensity (a.u.)"}, {"sequence": "GCATGCATACATGTAATTAATTAGCACATTCTCTCCCCTACGGAGTCACCTAGTGCAG", "binding signal": "12700 fluorescence intensity (a.u.)"}, {"sequence": "CCCTAATTATGGTACGTGTTGATCGTGCCACTTCTTCCTCCGGAGTCACCTAGTGCAG", "binding signal": "39500 fluorescence intensity (a.u.)"}, {"sequence": "ACTATCGTAGGTAGCCAATCAATTTAACATTTCACTCAAGCGGAGTCACCTAGTGCAG", "binding signal": "3630 fluorescence intensity (a.u.)"}, {"sequence": "CGTGATTAGTCTCACCTTAGTGTAATCTTTTGAATTTGGACGGAGTCACCTAGTGCAG", "binding signal": "40300 fluorescence intensity (a.u.)"}, {"sequence": "TTTATAATTAGTGCCCAAACATCCGATGTGATAGGGACTTCGGAGTCACCTAGTGCAG", "binding signal": "20600 fluorescence intensity (a.u.)"}, {"sequence": "AACGTCAATCACTTCCGCGCTAGAAATTAGTCATCAACACCGGAGTCACCTAGTGCAG", "binding signal": "26300 fluorescence intensity (a.u.)"}, {"sequence": "TTGCCCATCACCGACCTAACTGGACTAGCCCATCAACCAGCGGAGTCACCTAGTGCAG", "binding signal": "6720 fluorescence intensity (a.u.)"}, {"sequence": "AATAATTACAACAAGAATTGAGGAAGTAGCTTCAATAGCTCGGAGTCACCTAGTGCAG", "binding signal": "16900 fluorescence intensity (a.u.)"}]}]}
